Data published in PubChem BioAssay AID504845 (National Center for Advancing Translational Sciences (NCATS), 2011).
The campaign covered roughly 390,000 compounds. About 150 (0.038%) were called active. Inconclusive results, whose numbers are uncertain, are shown with a selection of clear calls. Calls come from the whole dose curve; as a rule, active = well fitted inhibition curve with a large enough effect; inconclusive = small, poorly fitted or top-dose-only effect; inactive = no such curve, though single readings can be large or run the other way. A potency beside an inconclusive call is a rough fit, not a confirmed value.

Molecular target: Regulator of G-protein signaling 4 (Homo sapiens) (UniProt P49798)
Test: Inhibitors of Regulator of G Protein Signaling (RGS) 4: qHTS; note: nearly all actives have a fitted effect of over 75% in size
Conditions: Transcreener GDP fluorescence polarization, RGS4-accelerated GTP hydrolysis; series mostly up to 114 µM; activity change, negative = inhibition: at the top concentration
Outline: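 MLSMR compounds (23 nl, pin-transferred) preincubated 10 min at room temperature with a 500nM (2x) first reagent, then RGS4 at 900nM (2x) plus Transcreener GDP mix added; fluorescence polarization (620/688 nm) read before and after 90 min at 30 °C.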
% is set by controls: 0 for no effect and ±100 for the full control effect; potency is the fitted concentration of half-maximal effect; tags give direction and shape of the fitted curve.

Chain of UniProt P49798 (P49798 whole entry, looked up): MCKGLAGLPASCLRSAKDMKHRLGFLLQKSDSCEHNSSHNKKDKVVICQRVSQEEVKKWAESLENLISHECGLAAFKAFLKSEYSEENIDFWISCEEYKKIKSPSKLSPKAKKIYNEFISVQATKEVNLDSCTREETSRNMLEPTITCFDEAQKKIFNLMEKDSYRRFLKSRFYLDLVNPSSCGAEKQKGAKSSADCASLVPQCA

SMILES | Potency | activity change, negative = inhibition
Cc1ccc2c(c1)C(O)(CC(=O)c1cccc(-n3cccc3)c1)C(=O)N2 (stereo not drawn) | inconclusive: 79.4 µM [inhibitor, partial curve, poor fit] | –
COc1ccccc1N1CCNC(C)C1=O (stereo not drawn) | inconclusive: 20 µM [inhibitor, full curve, poor fit] | –
Cc1ccc2nc(-c3sc4nc(C)cc(C)c4c3N)[nH]c2c1 | inconclusive: 89.1 µM [inhibitor, single point] | –
CNC(=O)c1cc2c(s1)CCCCCC2 | – | inactive: -21.4%
CCOC(=O)c1sc(=S)n(-c2cc(OC)ccc2OC)c1N | inconclusive: 79.4 µM [inhibitor, partial curve, poor fit] | –
Cc1cccc(-n2ncc(C(=O)NCc3ccco3)c2C2CCN(C(=O)OC(C)(C)C)CC2)c1 | – | inactive: 18.4%
CCN(CCC(=O)Nc1ccc(Br)c(C)c1)Cc1ccccc1 | inconclusive: 89.1 µM [inhibitor, single point] | –
CC/C(C)=N\N=C\c1c(O)n(CC)c2cc(C3=NNC(=O)CC3)ccc12 | inconclusive: 89.1 µM [inhibitor, single point] | –
O=C(O)c1ccc(Cl)c(S(=O)(=O)N(Cc2ccccc2)c2ccc(F)cc2)c1 | – | inactive: 2.09%
O=C(O)CCC/C=C\C[C@H]1C(=O)C[C@@H](O)[C@@H]1/C=C/[C@@H](O)CCc1ccccc1 | inconclusive: 0.189 µM [inhibitor, full curve, poor fit] | –
CC(C)(C)OC(=O)N1CCC[C@H]1C(=O)NCc1ccc(Cl)cc1Cl | inconclusive: 79.4 µM [inhibitor, partial curve, poor fit] | –
Cc1occc1C(=O)N/N=C/c1ccc[nH]1 | inconclusive: 89.1 µM [inhibitor, single point] | –
Cc1ccc2cccnc2c1NC(=S)NC(=O)c1ccccc1 | inconclusive: 89.1 µM [inhibitor, partial curve, poor fit] | –
CCOC(=O)C1CCCN(C(=O)CSc2ccc(NC(C)=O)cc2)C1 (stereo not drawn) | inconclusive: 89.1 µM [inhibitor, single point] | –
O=C(/C=C/Nc1ccc(F)c(Cl)c1)c1ccccc1 | – | inactive: -1.94%
CCc1nnc(NS(=O)(=O)c2ccc(NC(=S)NC(=O)/C=C/c3ccc(C(C)C)cc3)cc2)s1 | inconclusive: 56.2 µM [inhibitor, partial curve, poor fit] | –
CC1(C)CC(=O)C(C(C2=C(O)CC(C)(C)CC2=O)c2ccc(O)c([N+](=O)[O-])c2)=C(O)C1 | inconclusive: 17.8 µM [inhibitor, full curve, poor fit] | –
C=CC[C@H]1CC(Cc2ccccc2)=C[C@H](CC=C)N1 | inconclusive: 44.7 µM [inhibitor, partial curve, poor fit] | –
